Laboratory results taken from article PMC3646048.
These are yes or no findings as the source states them, for the method shown. In cells and extracts the contact can be indirect. Some results given as binding are weak or reduced against the parent protein; the word gives no strength. Tags and fused reporters may be left off the sequences shown.

Sequences of proteins named here, by UniProt entry; tags and fusion partners are left off.
UniProt P48436: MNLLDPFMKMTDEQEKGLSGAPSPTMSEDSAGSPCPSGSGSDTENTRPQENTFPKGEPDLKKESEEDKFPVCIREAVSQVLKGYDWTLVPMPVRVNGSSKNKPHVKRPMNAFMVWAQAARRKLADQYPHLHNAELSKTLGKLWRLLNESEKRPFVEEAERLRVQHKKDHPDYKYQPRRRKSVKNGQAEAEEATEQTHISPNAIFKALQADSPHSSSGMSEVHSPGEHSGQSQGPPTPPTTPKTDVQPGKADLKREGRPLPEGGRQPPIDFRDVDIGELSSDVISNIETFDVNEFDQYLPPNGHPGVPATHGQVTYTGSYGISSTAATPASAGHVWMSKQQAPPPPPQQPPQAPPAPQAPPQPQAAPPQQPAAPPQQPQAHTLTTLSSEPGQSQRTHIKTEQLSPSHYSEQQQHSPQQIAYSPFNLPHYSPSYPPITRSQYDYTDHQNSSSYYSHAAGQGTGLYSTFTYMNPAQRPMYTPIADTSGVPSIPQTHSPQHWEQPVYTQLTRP

Experiments:
Assay in all cases: pull-down; GST fusion protein on glutathione beads (pre-incubated in 1% BSA) incubated overnight at 4°C with in vitro translated 35S-methionine labelled protein; SDS-PAGE and autoradiography; only the target purified
GST-TSHZ3fl = target: T1, GST-TSHZ3fl (UniProt Q8CGV9)
T1 sequence: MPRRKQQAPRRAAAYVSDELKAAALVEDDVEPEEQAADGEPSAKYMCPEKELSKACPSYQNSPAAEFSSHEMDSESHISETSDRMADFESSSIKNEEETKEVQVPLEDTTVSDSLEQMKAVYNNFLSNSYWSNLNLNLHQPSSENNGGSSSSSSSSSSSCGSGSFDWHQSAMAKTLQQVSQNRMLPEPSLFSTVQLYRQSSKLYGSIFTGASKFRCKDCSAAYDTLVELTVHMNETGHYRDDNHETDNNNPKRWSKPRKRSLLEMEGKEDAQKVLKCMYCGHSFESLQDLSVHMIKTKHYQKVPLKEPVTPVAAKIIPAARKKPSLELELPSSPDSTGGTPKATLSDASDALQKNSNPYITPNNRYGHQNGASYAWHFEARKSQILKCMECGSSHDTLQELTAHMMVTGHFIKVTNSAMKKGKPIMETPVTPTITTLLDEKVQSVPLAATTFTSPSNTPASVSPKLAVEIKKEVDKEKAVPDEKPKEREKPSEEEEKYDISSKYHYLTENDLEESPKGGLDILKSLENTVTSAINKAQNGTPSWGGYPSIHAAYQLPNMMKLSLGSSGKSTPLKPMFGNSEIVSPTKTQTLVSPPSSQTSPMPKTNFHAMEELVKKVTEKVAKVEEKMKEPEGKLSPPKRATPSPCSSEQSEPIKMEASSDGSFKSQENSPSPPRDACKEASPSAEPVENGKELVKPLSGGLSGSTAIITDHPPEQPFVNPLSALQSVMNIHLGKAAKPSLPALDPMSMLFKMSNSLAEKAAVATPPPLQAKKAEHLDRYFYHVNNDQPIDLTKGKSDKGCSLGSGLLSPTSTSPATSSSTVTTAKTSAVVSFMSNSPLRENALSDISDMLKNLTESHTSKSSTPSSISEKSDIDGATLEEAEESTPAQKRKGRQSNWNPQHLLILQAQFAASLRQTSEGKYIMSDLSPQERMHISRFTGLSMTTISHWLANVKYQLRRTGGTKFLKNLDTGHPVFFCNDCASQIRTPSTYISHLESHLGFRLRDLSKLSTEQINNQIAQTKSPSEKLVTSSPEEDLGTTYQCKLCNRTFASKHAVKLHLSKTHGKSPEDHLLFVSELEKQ

GST-C-TSHZ3 = target: T2, GST-C-TSHZ3 (UniProt Q8CGV9)
T2 sequence: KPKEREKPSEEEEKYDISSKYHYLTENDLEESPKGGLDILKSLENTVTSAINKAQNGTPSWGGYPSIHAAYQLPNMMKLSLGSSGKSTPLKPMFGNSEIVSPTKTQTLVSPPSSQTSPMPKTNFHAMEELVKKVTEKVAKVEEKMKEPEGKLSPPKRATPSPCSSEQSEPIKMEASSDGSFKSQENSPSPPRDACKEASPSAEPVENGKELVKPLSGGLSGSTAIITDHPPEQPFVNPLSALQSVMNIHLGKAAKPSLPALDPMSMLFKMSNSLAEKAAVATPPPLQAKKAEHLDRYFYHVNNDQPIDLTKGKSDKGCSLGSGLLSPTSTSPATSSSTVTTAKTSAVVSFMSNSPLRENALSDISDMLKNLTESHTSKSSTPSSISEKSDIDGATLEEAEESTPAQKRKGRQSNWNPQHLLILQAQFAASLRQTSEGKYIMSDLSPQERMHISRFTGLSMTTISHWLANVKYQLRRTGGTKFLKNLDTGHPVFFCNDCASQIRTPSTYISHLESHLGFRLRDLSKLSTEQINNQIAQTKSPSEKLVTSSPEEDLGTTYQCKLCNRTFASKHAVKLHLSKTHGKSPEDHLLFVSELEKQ

GST-N-TSHZ3 = target: T3, GST-N-TSHZ3 (UniProt Q8CGV9)
T3 sequence: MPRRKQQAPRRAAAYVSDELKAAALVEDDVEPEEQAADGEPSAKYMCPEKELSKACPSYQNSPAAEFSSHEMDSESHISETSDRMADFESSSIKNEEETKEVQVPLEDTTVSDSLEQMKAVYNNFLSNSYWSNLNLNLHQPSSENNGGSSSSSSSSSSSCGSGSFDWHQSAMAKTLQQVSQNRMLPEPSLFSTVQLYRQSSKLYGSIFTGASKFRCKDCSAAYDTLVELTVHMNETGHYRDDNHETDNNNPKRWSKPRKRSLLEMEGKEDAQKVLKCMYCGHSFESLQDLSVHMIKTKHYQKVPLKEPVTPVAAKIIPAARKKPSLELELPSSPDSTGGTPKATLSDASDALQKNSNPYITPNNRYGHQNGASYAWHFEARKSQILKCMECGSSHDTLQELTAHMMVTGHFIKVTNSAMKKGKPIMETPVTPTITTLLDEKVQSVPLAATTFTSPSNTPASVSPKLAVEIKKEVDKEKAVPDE

binding (GST-TSHZ3fl): binds
binding (GST-C-TSHZ3): binds weakly
binding (GST-N-TSHZ3): binds
Substance: in vitro translated SOX9 (from UniProt P48436 1-509)
